Values joined by “and” are separate entries in the source; they are usually repeats but may differ in a detail not shown here. Equal entries are not always repeated. About 6,500 (4.3%) of roughly 150,000 compounds were called active. The inconclusive results got no clear call from the source; some entries with a clear call stand among them for comparison. The call rests on the fitted dose curve; in most records, active means well fitted inhibition curve with a large enough effect (not every such curve was filed as active); inconclusive means small, poorly fitted or top-dose-only effect, or another doubt; inactive means no such curve, though single readings can be large or run the other way. Where the call is inconclusive, the potency comes from a doubtful curve fit.
Target: 15-hydroxyprostaglandin dehydrogenase [NAD(+)] (Homo sapiens) (UniProt P15428)
Test: qHTS Assay for Inhibitors of HPGD (15-Hydroxyprostaglandin Dehydrogenase)
Settings: purified HPGD, NADH fluorescence kinetic, PGE2 substrate; activity change, negative = inhibition: active compounds read low
Summary of the method: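 20 nM HPGD preincubated 15 min at room temperature with compound in 50 mM Tris-HCl pH 8, 0.01% Tween 20. Started with 1 mM NAD+ and 30 uM prostaglandin E2; NADH fluorescence (360/450 nm) read 5 times over 30-s intervals, last minus first.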
On the % scale 0 is the no-effect control and ±100 the full control effect; potency means the concentration at half of the fitted maximal effect; tags describe the fitted curve by direction and shape.

Chain of UniProt P15428 (P15428 whole entry, looked up): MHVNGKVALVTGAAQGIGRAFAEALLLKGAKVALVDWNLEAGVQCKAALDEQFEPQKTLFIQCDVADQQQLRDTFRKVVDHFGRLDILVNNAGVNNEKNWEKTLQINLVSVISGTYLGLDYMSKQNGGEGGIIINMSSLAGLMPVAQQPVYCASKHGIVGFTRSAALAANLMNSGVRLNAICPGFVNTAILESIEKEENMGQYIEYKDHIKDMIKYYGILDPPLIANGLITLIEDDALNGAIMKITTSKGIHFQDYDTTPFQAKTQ

Compound | Potency | activity change, negative = inhibition
Cc1ccc(S(=O)(=O)Nc2nc(C)cc(N/N=C/c3ccc(O)cc3)n2)cc1 | inconclusive: 35.5 µM [inhibitor, single point] | 
Cc1nnc(NC(=O)c2ccc(C)c(S(=O)(=O)N3CCOCC3)c2)s1 |  | inactive: -7.2%
O=C(NC(=S)Nc1ccc(S(=O)(=O)N2CCCCC2)cc1)c1ccc(Cl)cc1 | inconclusive: 14.1 µM [inhibitor, partial curve] | 
O=C(N/N=C\c1ccc(Cl)s1)c1cccs1 | inconclusive: 31.6 µM [inhibitor, partial curve] | 
O=C1CC(c2ccccc2)CC2=C1C(c1ccccn1)Nc1ccccc1N2 (stereo not drawn) |  | inactive: -4.88%
Cc1nc2nc[nH]n2c(=O)c1CCC(C)C |  | inactive: -28.4%
CCSc1nc2sc3c(c2c(=O)n1C1CCCCC1)CCN(C)C3 |  | inactive: -17.1%
COc1ccc(COc2cc(-c3cccc(OC)c3)nc3ccc(NC(=O)c4ccccc4)cc23)cc1 | inconclusive: 25.1 µM [inhibitor, partial curve] and inconclusive: 14.1 µM [inhibitor, partial curve] | 
COc1ccc2[nH]c(=O)c(CN(Cc3ccccc3)Cc3nnnn3CC3CCCO3)cc2c1 (stereo not drawn) | inconclusive: 28.2 µM [inhibitor, partial curve] | 
COC(=O)C(CC(=O)c1ccc(Cl)cc1)c1ccc(C)cc1 (stereo not drawn) |  | inactive: -10.4%
CCn1c(SCC(=O)c2ccc(Cl)cc2)nnc1C(C)C | inconclusive: 31.6 µM [inhibitor, partial curve] | 
CCCCNC(=O)CC(=O)Nc1ccccc1C(=O)O | inconclusive: 20 µM [inhibitor, partial curve] | 
O=S(=O)(c1ccccc1)N1CCC2(CC1)CN(c1ccncc1)C2 |  | inactive: -27.4%
COC(=O)/C=C/c1cccc([C@H]2[C@@H]3C=CC[C@@H](C)[C@@H]3C(=O)N2Cc2ccccc2)c1 |  | inactive: -14.3%
O=C(C1CCCN(S(=O)(=O)c2cccc3cccnc23)C1)N1CCc2ccccc21 (stereo not drawn) |  | inactive: -8.55%
CCC1(c2cccc(Cl)c2)NC(=O)N(Cc2cc(C(=O)OC)c(C)o2)C1=O (stereo not drawn) | inconclusive: 31.6 µM [inhibitor, single point] | 
CC1CCN(C(=O)CSc2ccc(-c3ccc(F)cc3)nn2)CC1 | active: 10 µM | 
CCc1ccc(CNc2ccc3c(c2)ncn3C)cc1 | inconclusive: 17.8 µM [inhibitor, partial curve] | 
Nc1c(C(=O)NC2CCCC2)c2nc3ccccc3nc2n1/N=C/c1ccco1 | inconclusive: 10 µM [inhibitor, partial curve] | 
CN(CCc1ccc(Cl)c(Cl)c1)CCN1CCCC1 |  | inactive: -8.19%
CCCCOc1ccc(C2OC34CCCCC3C(C#N)(C#N)C2(C#N)C(=N)O4)cc1 (stereo not drawn) | inconclusive: 39.8 µM [inhibitor, single point] | 
CCn1c(SCC(=O)NCC2CCCO2)nnc1-c1c[nH]c2ccccc12 (stereo not drawn) | active: 31.6 µM | 
O=C(c1ccc(NS(=O)(=O)c2ccccc2)cc1)N1CCCC1 | active: 17.8 µM | 
Cc1[nH]c2ccccc2c1C(=O)CNc1nccs1 |  | inactive: -18.5%
O=C(CC(=O)c1ccccc1O)c1cccc(F)c1 | active: 20 µM | 

Compound | Potency | activity change, negative = inhibition
COc1cc(CNn2cnnc2)ccc1OCC(=O)NC1CCCCC1 | inconclusive: 14.1 µM [inhibitor, partial curve] | 
CS(=O)(=O)c1ccc(N2CCOCC2)c(S(C)(=O)=O)c1 |  | inactive: -11.8%
O=C(CN1C(=O)C2CCCCC2C1=O)Nc1nc(-c2ccccn2)cs1 (stereo not drawn) | active: 28.2 µM | 
Nc1nnnn1/N=C/c1ccccc1C(F)(F)F | inconclusive: 28.2 µM [inhibitor, partial curve] | 
CC(C)c1ccc(NC(=O)COc2ccc(F)cc2C(=O)c2cnn(-c3ccccc3)c2)cc1 | inconclusive: 11.2 µM [inhibitor, partial curve] | 
COc1cc(NS(=O)(=O)c2ccc(N/C=C(\C=O)c3nc4cc(Cl)ccc4o3)cc2)nc(OC)n1 | active: 14.1 µM | 
O=C1CC(c2ccc(Cl)cc2)CC(O)=C1C=NCc1ccc(Cl)c(Cl)c1 (stereo not drawn) |  | inactive: -15.7%
O=C(CCc1nc2ccccc2[nH]1)NC1CCCCC1 |  | inactive: -12%
Cc1ccc(CN2C(=O)CCC2C(=O)NCC2CCCO2)cc1 (stereo not drawn) |  | inactive: -1.43%
Cc1cccc(NC(=S)N/C(=N/S(=O)(=O)c2ccccc2)c2ccccc2)c1 | inconclusive: 25.1 µM [inhibitor, single point] | 
COc1ccc(Nc2cc(C)nc3ncnn23)c(OC)c1 | active: 15.8 µM | 
CS(=O)(=O)N(CC(=O)N/N=C/c1cccc2c1OCCO2)c1ccccc1Br | inconclusive: 28.2 µM [inhibitor, partial curve] | 
C(=N\c1nccs1)/c1cccnc1 | inconclusive: 35.5 µM [inhibitor, partial curve] | 
O=S(=O)([O-])CCC[n+]1c(SCCCS(=O)(=O)O)sc2ccc(Cl)cc21 | inconclusive: 31.6 µM [inhibitor, single point] | 
CC(C)(C)c1nnc(SCC(=O)c2ccccc2)n(N)c1=O | active: 25.1 µM | 
O=C(CCC1CCCC1)Nc1ccccc1-c1ccccc1 |  | inactive: -8.13%
CCCC(=O)NC(c1cccs1)c1cc([N+](=O)[O-])c2cccnc2c1O (stereo not drawn) |  | inactive: -19.5%
COc1ccc(/C=N/NC(=O)c2nc(-c3ccccc3)cc(-c3ccccc3)n2)cc1OC | inconclusive: 39.8 µM [inhibitor, single point] | 
Cc1cnc(C(=O)OCC(=O)c2csc(N3CCCCC3)n2)cn1 | inconclusive: 31.6 µM [inhibitor, partial curve] | 
CC(=O)CSc1nnc(Cc2ccc([N+](=O)[O-])cc2)o1 |  | inactive: -1.46%
CN1CCC(=NNC(=O)C(=O)Nc2ccccc2)CC1 |  | inactive: 3.03%
CC1(C)CC(=O)C(=Cc2cn(CCC#N)nc2-c2ccc(F)cc2)C(=O)C1 | active: 20 µM | 
CCCCNc1nc(C)nc2c1nc(-c1ccccc1)n2CCCN1CCCCC1C (stereo not drawn) | inconclusive: 12.6 µM [inhibitor, partial curve] | 
CCOC(=O)c1c(C)oc2c1c(C(c1cccnc1)N1CCN(C)CC1)c(O)c1ccccc12 (stereo not drawn) |  | inactive: -28.2%
CC1CCN(C(=O)/C(=C/c2ccccc2Cl)c2ccccc2)CC1 | active: 11.2 µM | 

Compound | Potency | activity change, negative = inhibition
CN(C)C(=O)c1ccc(-c2nc(Nc3ccncc3)c3ccccc3n2)cc1 | active: 0.158 µM | 
CCOCCCNC(=S)Nc1ccc(S(N)(=O)=O)cc1 | active: 14.1 µM | 
O=C(NC(CC(=O)N1CCN(c2ccc([N+](=O)[O-])cc2)CC1)c1ccccc1)c1ccccc1Cl (stereo not drawn) |  | inactive: -9.65%
O=C(c1ccc(COc2ccccc2Br)cc1)N1CCCCC1 | active: 0.0447 µM | 
COc1ccc(CN(CCC(c2ccccc2)c2ccc(OC(C)C)cc2)C(=O)CCl)cc1OC (stereo not drawn) | inconclusive: 14.1 µM [inhibitor, partial curve] | 
Cc1nc(N2CCN(C(=O)c3ccc(Cl)cc3)CC2)c(C#N)c2c1COC(C)(C)C2 | inconclusive: 31.6 µM [inhibitor, single point] | 
Cc1oc2nc(SCC(=O)Nc3ccc(S(N)(=O)=O)cc3)nc(NC(=O)c3ccccc3)c2c1C | inconclusive: 39.8 µM [inhibitor, single point] | 
COCCn1c(SCC(=O)Nc2cc(C)on2)nnc1-c1ccco1 |  | inactive: -6.34%
CCOc1ccc2[nH]c(=O)c(CN(CCc3ccccc3)C(=O)N3CCCC3)cc2c1 | inconclusive: 28.2 µM [inhibitor, partial curve] | 
NC(=O)c1sc2nc3c(c(-c4cccs4)c2c1N)CCCCC3 | inconclusive: 28.2 µM [inhibitor, partial curve] | 
Cc1cc(C)cc(NC(=O)Cn2cc3c(n2)CCCCC3)c1 | active: 20 µM | 
C#CC(C)OC(=O)C(C)NC(=O)c1ccccc1 (stereo not drawn) |  | inactive: -6.81%
N#Cc1nc(-c2ccccc2F)oc1NCCN1CCOCC1 | inconclusive: 31.6 µM [inhibitor, partial curve] | 
Cc1cc(N2CCOCC2)nc2ccc(NC(=O)CCC(=O)N3CCCCC3)cc12 | inconclusive: 25.1 µM [inhibitor, partial curve] | 
CCc1ccc(OCC(O)CN2CCC(CN3C(=O)c4cccc5cccc(c45)C3=O)CC2)cc1 (stereo not drawn) | inconclusive: 31.6 µM [inhibitor, partial curve] | 
C=CCN(CC=C)c1nc2ccccc2nc1C(C#N)C(=O)OCCOC (stereo not drawn) | inconclusive: 31.6 µM [inhibitor, single point] | 
COc1cccc(-c2noc(N)c2C#N)c1 | inconclusive: 22.4 µM [inhibitor, partial curve, poor fit] | 
Cc1nn2c(-c3ccncc3)nnc2c2ccccc12 | inconclusive: 12.6 µM [inhibitor, partial curve] | 
O=C1Nc2ccccc2/C1=C/C(=O)c1cccs1 | inconclusive: 39.8 µM [inhibitor, single point] | 
CCOc1ccc2[nH]c(=O)c(CN(Cc3ccc(C)cc3)C(=O)N3CCCC3)cc2c1 | inconclusive: 3.55 µM [inhibitor, full curve] | 
Cc1cc(O)c2c(c1O)C(=O)C(O)=C(O)C2=O | inconclusive: 28.2 µM [inhibitor, partial curve] | 
Fc1ccc(-c2nn3c(C4COc5ccccc5O4)nnc3s2)cc1 (stereo not drawn) | active: 28.2 µM | 
C=C1c2c(Cl)ccc(O)c2C(O)=C2C(=O)[C@]3(O)C(O)=C(C(N)=O)C(=O)C(N(C)C)C3C(O)C12 (stereo partly drawn) | inconclusive: 31.6 µM [inhibitor, partial curve] | 

Source: PubChem BioAssay AID894 (National Center for Advancing Translational Sciences (NCATS), 2007)
